Measurements as given in PubChem BioAssay AID1347073 (National Center for Advancing Translational Sciences (NCATS), 2019).
Out of some 45,000 compounds screened, about 200 (0.44%) were called active. About 7% were inconclusive and are not listed. Calls come from the whole dose curve; as a rule, active = well fitted activation curve with a large enough effect; inconclusive = small, poorly fitted or top-dose-only effect; inactive = no such curve, though single readings can be large or run the other way. The list shows a part of the results.

experiment: qHTS of TDP-43 Inhibitors: NCGC Sytravon Library Screen; conditions: yeast TDP-43 toxicity rescue, BacTiter-Glo growth, 24 h; series mostly up to 46.1 µM; growth rescue (activation): at the top concentration; note: 0% is about no effect; nearly all actives have a fitted effect of over 55% in size
In short: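 TDP-43-expressing yeast, pregrown in raffinose, seeded at OD600 0.02 in galactose medium with compound for 24 hr at 30 deg C. Growth read by BacTiter-Glo luminescence, so rescue of toxicity appears as activation.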

Structure (SMILES) | growth rescue (activation)
O=C(COC(=O)/C=C/c1ccccc1Cl)NCC1CCCO1 (centres undefined) | inactive: 6.37%
CC(=O)NC1(c2nnnn2CCOC(=O)Nc2ccc(Cl)cc2)CCCC1 | inactive: 7.89%
CN(C(=O)COC(=O)c1cc(-c2ccccc2Cl)nc2ccccc12)C1CCS(=O)(=O)C1 (centres undefined) | inactive: 6.71%
COc1ccc(C(=O)N(Cc2sccc2C)C2CCS(=O)(=O)C2)cc1 (centres undefined) | inactive: 11.8%
COCC(=O)N/N=C(\C)CC(=O)NCc1ccco1 | inactive: -12.2%
O=C(CNc1ccc2ccccc2c1)N/N=C/c1ccc([N+](=O)[O-])o1 | inactive: 14.5%
O=C(CCN1C(=O)/C(=C/c2ccccc2Cl)SC1=S)NNC(=O)c1ccccc1O | inactive: 1.25%
CCCCOC(=O)C[N+](C)(C)CCOC1CC2CCC1(C)C2(C)C (centres undefined) | inactive: -0.199%
COc1ccc(C=O)cc1Cn1c(=O)n(CCC(=O)NCc2ccco2)c(=O)c2sccc21 | inactive: 2.45%
COc1cc(O)c(/C=N/NC(=O)c2ccncc2)c(OC)c1[N+](=O)[O-] | inactive: 7.59%
Fc1ccc(-c2[nH]ncc2CN(CC2CCC2)CC2CCCO2)c(F)c1 (centres undefined) | inactive: 10.9%
O=C(Nc1cccnc1)c1cccc(-c2cc3ccccc3oc2=O)c1 | inactive: 1.9%
CCOc1ccc(NC(=O)CNC(=O)c2nn(-c3ccc(OC)c(OC)c3)c(=O)c3ccccc23)cc1 | inactive: -0.23%
O=C(NC1CC1)C1CCN(C2CCN(C(=O)Cc3ccc4c(c3)OCO4)CC2)CC1 | inactive: 8.97%
Cc1nccn1-c1ccc(C=O)cc1 | inactive: -3.48%
CCOc1cc(C(=O)Nc2ccc(S(=O)(=O)Nc3onc(C)c3C)cc2)cc(OCC)c1OCC | inactive: 5.72%
CCOc1ccc(Br)cc1S(=O)(=O)N1CCC(C(=O)O)CC1 | inactive: 15.8%
Cc1ccc(-c2nc(C#N)c(N3CCC(C(N)=O)CC3)o2)cc1 | inactive: 1.31%
CC(C)[C@H](NS(=O)(=O)c1cccc(C(F)(F)F)c1)C(=O)OCC(=O)NC(=O)NCc1ccco1 | inactive: 30.4%
CCN1CCC(NC(=O)Nc2cc(Cl)ccc2OC)CC1 | inactive: 0.945%
O=[N+]([O-])c1ccc(Oc2ccc(/C=N/O)cc2)nc1 | inactive: 29.6%
CCN(CC)CCN1CCN(c2cncc(-c3ccc4ccccc4c3)n2)CC1 | inactive: -0.865%
c1csc(-c2nc(NCC3CCCO3)c3ccccc3n2)c1 (centres undefined) | inactive: 5.57%
CCOc1ccc(NC(=O)C2C(c3ccccc3)C2(Cl)Cl)cc1 (centres undefined) | inactive: 8.96%
C#CCOc1ccc(Cl)cc1/C=C1/C(=O)ON=C1C | inactive: -13.9%
CC(NC(=O)Cn1cccc1C(=O)c1ccccc1)c1ccc2c(c1)OCCO2 (centres undefined) | inactive: 16.3%

Structure (SMILES) | growth rescue (activation)
CC1(C(=O)NS(=O)(=O)c2cccc(C#N)c2)CCN1C(=O)CC1CCCC1 (centres undefined) | inactive: 12.5%
CC(=O)Nc1ccc(C2(c3ccc(NC(C)=O)cc3)C(=O)Nc3ccccc32)cc1 | inactive: 2.83%
COc1ccc(NS(=O)(=O)c2ccc3nc(COc4ccc(Cl)c(C)c4)[nH]c3c2)cc1 | inactive: -4.02%
Cc1ccc(NC(=O)Cc2nnc(SCC(=O)NC3CCCC3)n2C)cc1 | inactive: 0.569%
COC(=O)c1c(NC(=O)COC(=O)CNC(=O)C2CCCCC2)sc(C)c1C | inactive: 14%
O=C(Nc1ccc(S(=O)(=O)N2CCCC2)cc1)c1ccc(CN2CCOCC2)cc1 | inactive: 14.7%
CN1CCN(c2nc3c(c(=O)n(C)c(=O)n3C)n2CCSc2nnnn2-c2ccccc2)CC1 | inactive: -8.67%
CC(=O)Nc1ccc(Nc2nc(C)c([N+](=O)[O-])c(Nc3ccccc3)n2)cc1 | inactive: -20.9%
CCN1C(=O)/C(=C/c2nc3ccccc3c(=O)n2-c2ccccc2)c2ccccc21 | inactive: -16.8%
Cc1ccc(C(OCC(O)CNC(CO)C(O)c2ccc([N+](=O)[O-])cc2)c2ccccc2)cc1 (centres undefined) | inactive: 7.55%
O=C(O)CC1S/C(=N\N=C2CCCCCC2)N(c2ccccc2)C1=O (centres undefined) | inactive: -36.2%
COc1ccccc1C(=O)NC1CCCc2ccccc21 (centres undefined) | inactive: 4.09%
O=C(COC(=O)c1ccc(Cl)nc1)Nc1ccc(S(=O)(=O)N2CCCC2)cc1 | inactive: -1.12%
C(=N\Nc1ccccn1)/c1c[nH]c2ccccc12 | inactive: 4%
COC(=O)c1ccc(CSc2nnc(-c3ccccc3)n2C)o1 | inactive: 13.4%
CC(=O)Nc1cccc(-c2ccnc3c2CC(C(=O)Nc2cccc(NS(C)(=O)=O)c2)O3)c1 (centres undefined) | inactive: 11.9%
Cc1sc(NC(=O)CCC(=O)O)c(C#N)c1C | inactive: 9.36%
COc1ccc(CCNC(=O)CNC(=O)c2ccco2)cc1 | inactive: 0.974%
C[C@@H](N)C(=O)N[C@H]1CCC2C3CC=C4C[C@@H](O)CC[C@]4(C)C3CC[C@@]21C (some centres undefined) | inactive: -0.616%
CCOc1cc(C(=O)OCC(=O)NCc2ccco2)cc(OCC)c1OCC | inactive: 22.9%
C=C(C)Cn1c2ccc(NC(=S)NCc3ccccc3F)cc2c(=O)n1C | inactive: 6.06%
CCOC(=O)N1CCC(N2CCCC(C(=O)c3cccc(OC(C)C)c3)C2)CC1 (centres undefined) | inactive: -6.67%
Cc1ccc(NP(=O)(c2ccc(N(C)C)cc2NC(=O)c2cccs2)N2CCOCC2)cc1Cl (centres undefined) | inactive: 10.2%
O=C(O)Cn1nnc(-c2ccc(OCc3ccccc3Cl)cc2)n1 | inactive: 23.9%
CCOc1ccc(/C=C/C(=O)Nc2cccc(C(C)=O)c2)cc1 | inactive: 27.2%
CC1CCN(c2ccc(C(=O)Nc3nnc(C4CC4)s3)cc2[N+](=O)[O-])CC1 | inactive: 1.71%

Structure (SMILES) | growth rescue (activation)
Cc1cc(C)c(C)c(S(=O)(=O)Nc2ccccc2C(=O)O)c1C | inactive: 5.73%
O=C(Nc1nnc2n1CCS2)c1ccco1 | inactive: -1.25%
COc1ccc(COC(=O)Nc2c(SC)nsc2SC)cc1 | inactive: 18.9%
CCCOc1cccc(C2/C(=C(/O)c3ccccc3)C(=O)C(=O)N2CCN(C)C)c1 (centres undefined) | inactive: 32.5%
CC(=O)Nc1ccc(NC2=C(Cl)C(=O)c3ccccc3C2=O)cc1 | inactive: 2.97%
CCC(C)(C)NC(=O)C(c1ccc(F)cc1)N(Cc1ccccc1)C(=O)c1cnccn1 (centres undefined) | inactive: -18.8%
CC1Oc2ccccc2N(CC(=O)NC2CCCCC2)C1=O (centres undefined) | inactive: 0.945%
Cc1coc2cc3oc(=O)c(CC(=O)N(C)CC(=O)O)c(C)c3cc12 | inactive: 3.63%
CCCc1cc(=O)[nH]c(SCCCCN2C(=O)c3ccccc3C2=O)n1 | inactive: 5.93%
O=C(NCc1cc(Cl)cc(Cl)c1)c1ccc2sc([C@H]3C[C@H](O)[C@@H](CO)O3)nc2c1 | inactive: 14.8%
COc1ccc(-c2nnc(Nc3ccc(S(=O)(=O)Nc4nccs4)cc3)c3ccccc23)cc1 | inactive: 0.919%
COc1ccc(OC)c(S(=O)(=O)Nc2c(C)n(C)n(-c3ccccc3)c2=O)c1 | inactive: -7.08%
CN1C(=O)[C@@H]2[C@@H]3C[C@@H]([C@H]4ON=C(c5ccc(Cl)cc5Cl)[C@@H]34)[C@@H]2C1=O | inactive: 26.9%
Cc1ccc2nc(SCC(=O)Nc3ccc(F)cc3F)[nH]c2c1 | inactive: 1.39%
COc1cc(NC(=S)NCCCN2CCOCC2)cc(OC)c1 | inactive: 9.34%
CC1CCCCC1NC(=O)C1CCN(c2c3c(nc4ncnn24)CCC3)CC1 (centres undefined) | inactive: -3.25%
Cc1ccc(C)c(Cn2c(CCCNC(=O)C3CCCCC3)nc3ccccc32)c1 | inactive: 0.546%
Cc1cccc(NC(=S)NCCN2CCOCC2)c1C | inactive: 4.74%
Cc1cc(C(=O)N2CCCC(C(=O)c3ccc4ccccc4c3)C2)n(C)n1 (centres undefined) | inactive: 8.77%
COc1ccc(C)cc1NC(=O)C(Sc1nnc(-c2cccs2)o1)c1ccccc1 (centres undefined) | inactive: 10.6%
Cc1ccc(NC(=O)C(=O)NCC2CCN(C(=O)c3cccc([N+](=O)[O-])c3)CC2)cc1 | inactive: -4.24%
Cc1cccc(-n2cc3c(=O)n(C)c(=O)n(C)c3c2)c1 | inactive: -4.54%
O=C(CN1C(=O)NC2(CCc3ccccc32)C1=O)NCCc1ccccc1 (centres undefined) | inactive: 28.7%
Cc1ccccc1S(=O)(=O)NC(=O)C1(C)CCN1C(=O)CC1CCCC1 (centres undefined) | inactive: 11.4%
O=C(Nc1cccc(F)c1)C1CCN(C(=O)Cc2ccccc2)CC1 | inactive: 18.2%
CN(CC1COCCO1)c1nc2nonc2nc1N1CCSCC1 (centres undefined) | inactive: 9.78%

Structure (SMILES) | growth rescue (activation)
COc1ccc(/C=N/NC(=O)C2COc3ccccc3O2)cc1OC (centres undefined) | inactive: 6.88%
COc1ccc(-c2nc(CNS(=O)(=O)c3ccc(Br)cc3)cs2)cc1 | inactive: 17.3%
CCN(C(=O)c1cc2c(C)nc3ccccc3c2o1)c1cc(Cl)ccc1OC | inactive: 14.6%
Cc1cc(N/N=C/c2ccccc2O)nc(N2CCOCC2)n1 | inactive: 25%
CCN(CC)C(=O)CSc1nnc(NC(=O)CCc2ccccc2)s1 | inactive: 11.7%
CCC(CC)C(=O)Nc1c2c(nn1-c1ccc(C)cc1)CS(=O)(=O)C2 | inactive: -9.67%
COc1cc(N=CC2=C(O)c3ccccc3C2=O)cc(OC)c1 | inactive: 1.15%
CCCn1nc(C(=O)NNC(=O)c2cccc(C)c2)c2ccccc2c1=O | inactive: 2.38%
CCN(CC)c1ccc(/C=N/NC(=O)Cc2nnc(NC(=O)Nc3ccccc3)s2)cc1 | inactive: 7.1%
CC(=C/c1ccccc1)/C=N/n1c(-c2ccncc2)n[nH]c1=S | inactive: 14.3%
O=C1c2cccc3cccc(c23)C(=O)N1CCN1CCN(CC(O)COCc2ccc(Cl)cc2)CC1 (centres undefined) | inactive: -22.3%
O=C(O)c1cc(-c2ccc(/C=N/NC(=S)Nc3ccccc3)o2)ccc1Cl | inactive: 1.52%
CCOC(=O)C1(Cc2ccccc2)CCCN(Cc2cccc(C(C)=O)c2)C1 (centres undefined) | inactive: 5.31%
COc1cccc(C(=O)CC(=O)C(=O)Nc2cc(OC)ccc2OC)c1 | inactive: -15.3%
CC(C)(C)N(Cc1ccccc1)C(=O)COC(=O)C1CCCCC1 | inactive: 35.7%
CCN(C(=O)CSc1nc2ccc(Cl)cc2[nH]1)C1CCS(=O)(=O)C1 (centres undefined) | inactive: 17.4%
COc1cc(C)ccc1OCC(=O)OCC(=O)c1ccc[nH]1 | inactive: 12.5%
C=CCNc1nnnc2c1sc1nc(N3CCOCC3)c3c(c12)CCCC3 | inactive: 5.65%
O=C(COC(=O)COc1ccccc1)Nc1cccnc1Cl | inactive: -0.977%
O=C(CSc1nnc(C2COc3ccccc3O2)o1)N1CCCC1 (centres undefined) | inactive: -4.59%
CN(Cc1nc2ccccc2[nH]1)C(=O)C1CCC(=O)N(C2CCCC2)C1 (centres undefined) | inactive: 13%
O=C(Nc1ccc(C(=O)N2CCOCC2)cc1)Nc1cccc(Cl)c1 | inactive: 2.15%
O=C(O)C1(Cc2nc3ccccc3[nH]2)CCCC1 | inactive: -21.5%
Cn1nnc2c[n+](CC(=O)c3ccc4ccccc4c3)cc(Br)c21 | inactive: 14.7%
COC(=O)c1c(C)nc(C)c(C(=O)OC)c1-c1ccc(OC)c(OC)c1 | inactive: -21%
O=C(COC(=O)c1cc(=O)[nH]c(=O)[nH]1)Nc1ccccc1F | inactive: 9.69%
